Reference: the supplement of paper PMC11417369
Some of the results follow.

Test system: PfHDP1 homeodomain (GST-tagged)
Assay: gcPBM binding intensity (ln(normalized median fluorescence intensity)); higher = stronger DNA binding
Procedure, shortened: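 Probes on an Agilent 4 × 180k array were primer-extended, double-stranded and 36 bp long, taken from intergenic genomic regions, with negative controls added. GST-tagged P. falciparum DNA-binding domains from E. coli, about 25 μg on average, were applied to the array for 1 h in 1× PBS containing 1% milk, 0.2 mg/ml BSA, 0.5% salmon testes DNA and 0.03% Triton X-100. Binding intensity, obtained after Alexa488 anti-GST antibody detection and a 488 nm scan, is the highest Masliner-normalised natural-log median intensity across replicate spots of either probe orientation.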

Point of comparison: “ATATGTTTTGTTTACGTGCACTGCTTTGTTTATATA [GTGCAC_site9622]”, “gcPBM binding intensity (ln)” value 10. Against it:
- ATTTTTTTTCTTTTTTTTTTACATTTTTTTCTTTTT [CACACA_negctrl_site1289] — lower, 6.17
- ACATATAAAATGTATACACACAAATATTACAGAGAT [CACACA_site4920] — lower, 6.94
- TATAATAACAATTTAGTGCATATAATAATATTTTAT — lower, 8.78
- GCTTTTGAAAATATACACATGTTAGGAATACAGGGG [TGCATGCA_negctrl_site480] — lower, 7.17
- CTCATAAAAATAACGTTAACATAAATTTATTGTGAT [XGTACX_negctrl_site169] — lower, 6.95
- TTTTCATATGAACAATGTACACATCGTATAATTCTG [XGTACX_site4756] — lower, 6.68
- TGAACAGACGAGCACACACACACATATATATATATA [CACACA_site1019] — lower, 9.28
- ATACATATTAAAGGATGTACACTTATATTTTTTAGA [XGTACX_site5406] — lower, 6.07
- AATATAAAACATATCACACATATGTATTTATGTATA [CACACA_site5763] — lower, 6.29
- TATATGTCAATATCTACACACATATATATAATTATT [CACACA_site3156] — lower, 6.43
- TGTGGGAATAACCACACACACACACGCATATAAATA [CACACA_site7634] — lower, 6.68
- TAAATTTAGAAACACACACACATATATATATATATA [CACACA_site847] — lower, 9.36
- TTTATATTATTTTAAACATGCACAAGTATAATTTAT [TGCATGCA_site233] — lower, 8.55
- CAAAATAAAAATAACACACACATTTATATATATACA [CACACA_site1190] — lower, 6.73
- TTTTTAATTATCTTTTCCCATGGTTTCTCCGTTTTT [XGTACX_negctrl_site39] — lower, 6.74
- ATTTCTCAATCTTAATGTACAAAAAAAAGGAAAAAG [XGTACX_site1210] — lower, 6.37
- AGCATATTATCATATTGTACATATTATAATATATAT [XGTACX_site3907] — lower, 6.43
- AGCAAATCAGATAGTAGTACATTTAAATTAGACTTT [XGTACX_site4172] — lower, 6.26
- TAAAAATTTTAATAAACACACAATGAGATATTGAAT [CACACA_site5704] — lower, 6.31
- CATGTATTTTATATTACACACTAATATTATAGATAT [CACACA_site6819] — lower, 6.54
- TTTTTTTTTTTGTTTAAACACACGAGCTTTCTTCTT [CACACA_site4085] — lower, 6.37
- AAACATATAAACATATGTACATATAAACATATATAC [XGTACX_site5026] — lower, 6.46
- TTTTTAAAACATCACTGTACCCGTTATGGTGAACAT [XGTACX_site3483] — lower, 6.32
- TAAAACATAAGAGACACACACACATATATATATATA [CACACA_site3643] — lower, 9.37
- ATATTCTTTTTATGTGGTACTAATTTTTTTTTTTTA [XGTACX_site3791] — lower, 6.29
- TTTTTAAATAATTGAAGTACACATTTCTCTAAGTTG [XGTACX_site2846] — lower, 6.08
- AGTAAAAGAAAGCACACACACATGTATATAGGTATG [CACACA_site7759] — lower, 6.77
- ATCATCCAAGATCTTACACACATATTAAATAAATAA [CACACA_site1473] — lower, 6.66
- TTTTATTTTTTTAAATGTACACATATTAATGTAAGG [XGTACX_site319] — lower, 6.41
- ATCATGTTATATACATGTACATATATATATATATAA [XGTACX_site609] — lower, 6.87
- ATGTAAATATATATATGTACTAATTAGTAGTTTACG [XGTACX_site6271] — lower, 7.18
- TTACATAATTTCTGCTGTACCAATTTTGAGAAGTTG [XGTACX_site4023] — lower, 6.35
- ATCTTAACTCTATGCACACATAAAAGTATATAAATA [CACACA_site2256] — lower, 9.98
- CATACATACATACATACACACATACAGATATATATA [CACACA_site4890] — lower, 7.43
- TTTTATAAATTATAATTCTATTATCTGTTCTTTTTA [TGCATGCA_negctrl_site487] — lower, 6.39
- TCCTTATTACTTTTTTAAGTCGTAATGAAAGAAAAA [CACACA_negctrl_site1497] — lower, 6.15
- TATATATATATATGTGCATGTAATGATTCAGCATCT [TGCATGCA_site803] — lower, 9.5
- AACACAGATAAATTAACACACACACCCATATATATA [CACACA_site9310] — lower, 7.11
- CACATATAGTTATATGCACACATCTTACACATCTAT [CACACA_site5937] — higher, 10.2
- TTGAACTCTCTTACGCGTACGTGTTATTATGAAAAT [XGTACX_site6265] — lower, 6.73
- CAATTTGGGGTGTACACACACCTTATTTAAATTAAA [CACACA_site6663] — lower, 6.74
- ATGAAATATCGGAACGCACACATAAATATATTTATA [CACACA_site2670] — lower, 6.93
- TAGCTTATTAATATCATACACACATAGATATATTTA [CACACA_site3105] — lower, 6.34
